Measured values: the supplement of paper PMC12645437, “Orthogonal IMiD-Degron Pairs Induce Selective Protein Degradation in Cells” (ACS Chemical Biology, 2025)
The list shows a part of the results.

target: no compound (DMSO); assay: log2 fold change of degron read counts, EGFP-low vs EGFP+ sorted cells; higher = lower degron-EGFP level without compound (poor expression or instability); conditions: compound: DMSO control; 18 h
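Note: jurkat cells carrying a lentiviral library of mutant zinc finger degrons fused to EGFP plus mCherry, mCherry+ cells FACS sorted, degron abundance counted by next-generation sequencing.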

Row | Sequence | log2 fold change of degron read counts
1 | FNCPQCGAHFTQKGNLLRHIKL | -0.439
2 | FHCNICGAGFTQKGNLLRHIKL | -0.545
3 | LICNQCGFCCTQKGNLLRHIKL | 0.625
4 | FFCNVCGAQFTQKGNLLRHIKL | -1.12
5 | LACPICGFPCTQKGNLLRHIKL | 1.44
6 | FRCEICGASFTQKGNLLRHIKL | -1.12
7 | LTCPICGFICTQKGNLLRHIKL | 0.989
8 | LFCPICGFRCTQKGNLLRHIKL | 1.03
9 | FQCNQCGHLFTQKGNLLRHIKL | -0.342
10 | LSCNQCGFRCTQKGNLLRHIKL | 1.25
11 | FQCDVCGAKFTQKGNLLRHIKL | -1.67
12 | LKCPICGFLCTQKGNLLRHIKL | 0.762
13 | FGCNQCGHFFTQKGNLLRHIKL | 1.89
14 | FGCEICGHFFTQKGNLLRHIKL | 0.302
15 | FECPICGRLFTQKGNLLRHIKL | -0.396
16 | FHCNQCGRAFTQKGNLLRHIKL | -0.247
17 | LYCEICGFCCTQKGNLLRHIKL | 0.802
18 | FLCNQCGATFTQKGNLLRHIKL | -0.659
19 | FGCNQCGAKFTQKGNLLRHIKL | 0.0237
20 | LACEICGFSCTQKGNLLRHIKL | -0.64
21 | FQCPVCGALFTQKGNLLRHIKL | -0.179
22 | FKCNQCGHPFTQKGNLLRHIKL | 0.531
23 | FMCDICGADFTQKGNLLRHIKL | -1.23
24 | FACEICGAAFTQKGNLLRHIKL | -1.49
25 | FECDICGAQFTQKGNLLRHIKL | -2.09

Row | Sequence | log2 fold change of degron read counts
26 | FVCDVCGARFTQKGNLLRHIKL | -1.67
27 | FWCNICGARFTQKGNLLRHIKL | 0.952
28 | FYCEVCGAIFTQKGNLLRHIKL | -0.103
29 | FCCNVCGAKFTQKGNLLRHIKL | -0.877
30 | FQCNICGAMFTQKGNLLRHIKL | -0.447
31 | FDCEQCGACFTQKGNLLRHIKL | -1.78
32 | FMCNQCGHLFTQKGNLLRHIKL | 0.282
33 | FCCNQCGAKFTQKGNLLRHIKL | -1.45
34 | FYCEICGAKFTQKGNLLRHIKL | -1.83
35 | FSCNQCGAIFTQKGNLLRHIKL | 0.0437
36 | FICEICGRHFTQKGNLLRHIKL | -0.274
37 | LCCPICGFLCTQKGNLLRHIKL | 1.48
38 | LSCEICGFKCTQKGNLLRHIKL | -0.538
39 | FHCEQCGAEFTQKGNLLRHIKL | -1.56
40 | FSCPICGAIFTQKGNLLRHIKL | 0.102
41 | LQCPICGFWCTQKGNLLRHIKL | 1.37
42 | LDCPICGFMCTQKGNLLRHIKL | 0.806
43 | FWCPICGAVFTQKGNLLRHIKL | 1.34
44 | FTCNQCGRGFTQKGNLLRHIKL | -1.7
45 | FTCEVCGATFTQKGNLLRHIKL | -3.07
46 | FCCPQCGAHFTQKGNLLRHIKL | -0.127
47 | FVCPICGRGFTQKGNLLRHIKL | -0.236
48 | FACPICGHVFTQKGNLLRHIKL | -0.439
49 | FWCDQCGANFTQKGNLLRHIKL | -0.657
50 | FLCDVCGAEFTQKGNLLRHIKL | -2.36
